Test results from the RNAGym collection of RNA variant scans (doi:10.7554/elife.90254).
The source gives no read counts; variants with many changes may rest on few reads.

B1: LINE1-mini (parent)
chain: GGCAGAGCUCAACACAGCGUGGCAAAGUGGCUGUGGCUAGACUGCC

Variants of: B1
Assay: self-cleavage, relative activity (ratio to wild type); higher = more cleavage; in vitro, sequencing; the parent is a self-cleaving ribozyme

Variant	self-cleavage
G1A U9G A11U U28G U38C	0.02
G1A G33C C37A	0.05
G1A G7C G22U A25G	0.17
G1A U9A G17C G33C	0.03
G1A G5C C13U G19C A25U	0.06
G1A G21U G35U A39U	0.1
G1A G5U C13G C23A G29U C37U	0.12
G1A G17A G33A C42U	0.05
G1A G19U G33A	0.1
G1A U9A C37A	0.69
G1A U20G G30A	0.42
G1A G21U U32A	0.03
G1A U9C C15U G33C	0.04
G1A G5A A16C	0.14
G1A U9C U32A	0
G1A G22C C23A	2.31
G1A G21U A39U C45G	0.39
G1A G7A G35U G40U U43G	0.5
G1A G22A A26U	0.67
G1A U9A C13G U28C G36A	1.46
G1A G7A C46U	0.47
G1A U20A U38C	0.28
G1A U20A U38G	0.01
G1A G22U U32A C37G A39U	0.01

Variant	self-cleavage
G1A G5U A14U C15G G17A U20G G22A	0.04
G1A U9G A11C	0.04
G1A U9C G22C A26U A41U	0.23
G1A G5C G40U	0.11
G1A G7U C8A C23G G35U	0.57
G1A G5C G27C	0.32
G1A G5A A6U G21U	0.1
G1A U9A C15U U20A C31G	1.12
G1A G5C C18G G19A A24U A39G	0.03
G1A U20G C23G G44C	0.05
G1A G17A G29U	0.05
G1A G22C C42G	0.09
G1A G17U G21C U32G G40C	0.04
G1A G7U C13A	1.23
G1A G7A C18A U20C G33U U38A	0.27
G1A G35C G36C U38A G40U	0.08
G1A G19U U34C C37A	0.09
G1A U9C A12C	0.04
G1A U20C A26U	0.5
G1A G21U G27A	0.78
G1A G2U U20A	0.14
G1A G19A U28A G35A A39C	0.06
G1A G5A A16U C18U G21A	0.04
G1A G5A C15A G17U U28G G29A	0.05

Variant	self-cleavage
G1A G19A U20C G21U G33C C37U G44C	0.01
G1A G33A G36C C45U	0.02
G1A U20A A26G U43A	0.03
G1A G33U U34C C45A	0.06
G1A G17A G44A	0.05
G1A G19A C23A U34G A39C C46U	0.02
G1A U20A G44C	0.21
G1A G17A U28A	0.04
G1A G5U C10A A11U C23U A24U	0.04
G1A G17C A24C U32A A39G	0
G1A G5U G19U U34A	0.03
G1A G21C U28G U34A	1.2
G1A G22C C37G	0.53
G1A G7A C8A U9G C18G U32A A39C	0.18
G1A G7U A25G G30U C31A	0.38
G1A U9C G19A A24G C45U C46G	0.07
G1A G2U G7U C23A A25U G29C	0.02
G1A G30U U32A	0.07
G1A G44U C46G	0.06
G1A G2U G5U U9G G17A A41C	0.13
G1A G21A A26C	2
G1A G27C C31U	0.18
G1A G29U G40U	0.11
G1A G21A G30A U34C G36U	0.12

Variant	self-cleavage
G1A G22U C23G U32A	0.05
G1A G19A C23G G36C	0.09
G1A U9G G19A G27U G36A G40U	1.52
G1A G17A G21A G33U G35C	0.04
G1A G7C A14G C37U A39G	0
G1A G30C A41U	0.35
G1A G27U U32G C42U	0.06
G1A G17C C42U	0.06
G1A G5U C23A C42U G44U	0.15
G1A U9A C46U	0
G1A G5U A11C C37U	0.02
G1A G17U G19U U38G	0.05
G1A U28A C31A	0.14
G1A G2U U9G C15U U28C G36A G40C	0.03
G1A U28A C42U	0.43
G1A G21A A25G G33C A41U	0.04
G1A G7A A14C G19U U38A	0.19
G1A G33C C46U	0.02
G1A G7C G19U G21A C45A	1.39
G1A G17A G27A	0.22
G1A G5A A16U G17U	0.12
G1A G19A C37U G40U	0.14
G1A G7C A12G G36U C37A C45A	0.44
G1A G19C C42G	0.02

Variant	self-cleavage
G1A G17C G22C U34A	0.03
G1A G7C A24G A39C	0.93
G1A G19C C31G G40A	0.12
G1A G7C C15A U32G C45U	0.21
G1A G7C C18U U20A G30U U43A	0.04
G1A U20C U28C G30A	0.13
G1A G17U U28A G36A C45G	0.01
G1A G7C G19U	0.12
G1A G7A U38G	0
G1A G27A G33A U34G	0.02
G1A G17C C37G A41C	0.06
G1A G5U G22C U43G G44U C46A	0.04
G1A G17C C37A C42G C46U	0.03
G1A G17A C18U G36A	0.05
G1A G19U C42A	0.07
G1A G22A A26U U38A G44U	0.05
G1A G33A C45G	0.44
G1A G17U A25U C37U G44C	0.03
G1A G29U A39U	0.07
G1A G27A C31A G36A C42A	0.04
G1A G2U C18U C23A G29A C31G G36C C42U	0.14
G1A G21C U38A	0.98
G1A G7U A26G	0.07
G1A G22C A39U G40U C45G	0.13

Variant	self-cleavage
G1A G27U C37A	0.02
G1A U20A A26C U28G	0.12
G1A U20G G27U	0.93
G1A G27U G35C A39U C42G	0.03
G1A G33A A41U	0.04
G1A G19U U20A G30U C45G	0.09
G1A G30C G35C	0.08
G1A G35A U38G C46G	0.02
G1A G21C C23G U28C U32A	0.15
G1A G33U U38G	0.06
G1A G5U C8G U9G A25C U43A	0.07
G1A G17C C23U	0.09
G1A G29U G33A C45A	0.01
G1A G5A A14C G19C	0.02
G1A G30C G33U	0.24
G1A U32A G35U G36A C45A	0.02
G1A G33C G40A U43C C46U	0.02
G1A G5U C37A C46U	0.01
G1A G17U A41U C46G	0.14
G1A G17U U28A C31G	0.14
G1A G22A G33U G36C C46A	0.03
G1A G2U G7C	0.11
G1A G29U C37A	0.08
G1A U32A C37U C42U	0.04

Variant	self-cleavage
G1A G17A U32A	0.06
G1A G22U G44A C46A	0.11
G1A G21U G35C	0.11
G1A G5U G7U A11C G17C	0.03
G1A G5C G19U A25C C31G	0.05
G1A U9C A11C A26G	0.03
G1A G7C C18U G22U U32A	0.1
G1A U9C A25U A26U U28G U43A	0.05
G1A G33C U38C	0.03
G1A G5A G22A G27U	0.18
G1A U20G A26G	0.52
G1A G27A G29U G36A C46G	0.24
G1A G7A A26G	0.34
G1A G29C C42G	0.03
G1A G17C G29A	0.18
G1A G17U C45U	0.06
G1A G17A C23A G29U	0.11
G1A G30A U38G	0.04
G1A U20C A41U C46U	2.06
G1A G5A C46U	0.24
G1A G7U U9C C10A C18G G29U C45G	0.03
G1A G22U U32C	0.66
G1A G22A G33U C37A G44U	0.07
